Experimental data taken from the supplement of paper PMC12217912.
The list shows a part of the results. Sequences were assembled here from the parent chain. Values near 0.05 are background.

B1: TEV protease; numbered along this chain (parent)
chain: MGESLFKGPRDYNPISSSICHLTNESDGHTTSLYGIGFGPFIITNKHLFRRNNGTLVVQSLHGVFKVKDTTTLQQHLVDGRDMIIIRMPKDFPPFPQKLKFREPQREERICLVTTNFQTKSMSSMVSDTSCTFPSGDGIFWKHWIQTKDGQCGSPLVSTRDGFIVGIHSASNFTNTNNYFTSVPKNFMELLTNQEAQQWVSGWRLNADSVLWGGHKVFMVKPEEPFQPVKEATQL

Variants of: B1
Assay: raw area under fraction-flipped curve 0-4 h after induction (AUC4h, not background-subtracted), DNA-recorder readout of cleavage of the substrate (dimensionless); higher = more cleavage of the substrate by the protease variant
Details: temperature: 34 °C; time window: 0-4 h after rhamnose induction
Procedure: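 In vivo DNA recorder in E. coli TOP10(DE3) ΔrhaA at 34 °C. Each TEVp single-site mutant (parent TEVp 0) is paired with a single-site variant of the 7-mer TEVs (canonical ENLYFQ|S). The substrate sits between flexible linkers in a Bxb1-sfGFP-TEVs-SsrA fusion, so cleavage stabilises Bxb1 and speeds flipping of a recombination array, read by NGS. The value is the raw area under the fraction-flipped curve over 0-4 h after rhamnose induction (AUC4h), with ≥20 reads per time point. It is not background-subtracted; inactive controls average about 0.047.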
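Note: Bxb1 expression induced with 0.2% (w/v) L-rhamnose at OD600 near 0.5, cultures sampled hourly, flipped fraction per protease–substrate barcode pair counted by paired-end Illumina sequencing.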

Variant	area with substrate ANLYFQS	area with substrate CNLYFQS	area with substrate DNLYFQS	area with substrate GNLYFQS	area with substrate HNLYFQS	area with substrate INLYFQS	area with substrate KNLYFQS	area with substrate LNLYFQS	area with substrate MNLYFQS	area with substrate NNLYFQS	area with substrate QNLYFQS	area with substrate VNLYFQS	area with substrate WNLYFQS	area with substrate YNLYFQS	area with substrate FNLYFQS	area with substrate PNLYFQS	area with substrate TNLYFQS	area with substrate RNLYFQS	area with substrate SNLYFQS
N116D	0.0741	0.0742	0.0825	0.0822	0.0614	0.0551	0.0666	0.0658	0.0578	0.0975	0.0726	0.0748	0.0567	0.06	–	–	–	–	–
N116Q	0.0421	0.0639	0.085	–	0.0499	0.0625	–	0.0671	0.0445	0.0732	–	0.0839	0.0543	0.0512	0.0699	0.0826	0.0497	–	–
T129W	0.0442	0.0674	0.0798	0.0599	0.0644	–	–	0.062	0.0505	0.0811	0.0815	0.0688	0.0645	0.0596	0.0519	0.0718	0.0608	0.0594	0.0606
T129Q	0.0785	0.0926	0.0626	–	0.0468	0.0611	0.0562	0.0575	–	0.003	–	0.071	–	0.0691	–	–	0.0576	–	0.0639
T129I	0.0621	0.0645	0.0748	0.0825	0.0522	–	0.0565	0.0566	0.0601	–	–	–	–	–	0.0472	0.0901	–	0.0591	–
S124W	0.11	0.102	0.0632	0.0622	0.0592	–	–	0.0604	0.0787	0.0819	–	–	0.0503	0.0551	0.0718	0.0784	0.064	–	–
I145F	0.0645	0.0691	0.0769	0.0697	0.0792	–	0.0777	0.07	–	–	–	0.0627	0.065	–	–	–	0.0569	–	–
I145D	0.07	0.052	0.0409	0.0501	0.0528	0.055	0.084	–	0.059	0.0587	0.0598	–	0.0289	–	–	0.0523	0.0409	–	0.0479
F133E	0.087	0.0622	0.0898	–	0.0785	–	0.0644	0.0604	0.0644	0.0804	–	0.0554	0.0624	0.0659	–	0.0626	0.0626	–	0.0451
F133N	0.0564	0.0648	0.0819	0.074	0.0566	0.0639	0.0713	0.0643	–	–	–	0.0793	0.0659	0.0637	0.0363	0.0638	0.0751	–	0.0859
K142S	0.0614	0.0719	0.0808	0.0665	0.0624	0.0737	0.078	0.0598	0.0593	0.0518	–	0.064	0.0587	0.0886	0.0678	0.0777	0.0629	–	0.0748
K142T	0.0911	0.0454	0.0823	0.0428	0.0705	0.0692	0.0571	0.068	0.0678	–	–	0.0673	0.0593	0.0638	0.0652	–	–	–	0.0732
K142F	0.073	0.0666	0.0753	0.0847	0.0591	0.043	–	0.069	0.079	0.0637	–	0.0605	0.0608	0.0585	–	0.0796	0.0591	–	–
K142E	0.0357	0.0599	0.0693	0.115	0.061	–	0.0821	0.068	–	0.071	–	–	0.0639	0.0705	0.0649	0.0679	0.0621	–	0.0713
F117H	0.0589	0.0702	0.0842	0.0532	0.0639	0.0625	0.0482	0.0609	0.0762	0.0734	0.0933	–	0.0638	0.0669	–	0.0619	0.0709	–	0.059
T147E	0.0957	0.0604	0.0459	0.0805	0.06	0.0479	0.0643	0.0478	0.057	0.0587	–	–	0.059	0.0663	–	0.0453	0.0704	–	0.0642
T147N	0.0596	0.0578	0.0571	0.0606	0.0589	0.0556	–	0.0696	0.0527	0.068	–	0.0603	0.0663	0.0545	0.051	–	0.061	0.0481	–
Q118T	0.0758	0.0728	0.0923	0.074	0.0989	0.082	0.0616	–	0.0491	–	–	–	0.051	–	0.0735	–	0.0607	–	–
V126F	0.0573	0.078	0.0793	0.067	0.0685	0.0465	0.0743	0.0646	0.0707	–	–	0.0644	0.05	–	0.0595	0.08	0.0675	0.0569	0.0803
V126W	0.0704	0.0649	0.0826	0.0728	0.0713	0.0664	0.0665	0.0671	0.0675	0.0651	0.0951	0.0573	0.0608	0.0638	0.0705	0.0746	0.0713	0.0766	–
V126N	0.0488	0.0595	0.0867	0.0684	0.0542	0.0626	0.076	0.0594	–	–	–	–	0.0479	0.0542	–	0.0909	0.0735	–	0.0809
V126M	0.0498	0.0563	0.0767	0.0648	0.0548	0.0707	0.0638	–	0.0727	0.0642	–	–	0.0557	0.072	0.0608	0.0417	0.0712	0.0505	0.0679
T115N	0.0756	0.0689	0.0841	–	0.0612	0.0607	0.0807	–	–	–	–	–	–	0.0862	0.0613	–	–	–	0.0789
S127D	0.0634	0.0584	0.0767	0.0674	0.0591	0.0642	0.0711	–	0.0853	–	–	0.0704	0.0595	0.061	–	0.0727	0.0461	–	0.0564
S127P	0.0494	0.0661	0.0754	0.0713	–	0.0553	–	0.0434	0.07	–	–	–	0.063	0.0573	–	0.0736	0.0594	–	–
